This is an account of results in PubChem BioAssay AID463173 (ICCB-Longwood Screening Facility, Harvard Medical School, 2010).

In all, about 52,000 compounds went through this assay and about 4,300 (8.3%) were called active. Rule as the data show it: active = survival mostly below about 52% (no sharp cut-off); inactive = mostly above about 56%. The list shows a part of the results.

This assay relates to DeltatarO mutant. In words: S. aureus survival, RN4220 and DeltatarO strains – OD600, teichoic acid synthesis inhibitors, primary screen (AID 463173). To be noted: S. aureus RN4220 wild type/DeltatarO growth, OD600, 18 h, stronger effect = lower value, screened at 18.75 µg/mL (by protocol).
For the compound `NC(=O)C1CCN(C(=O)C2C3C=CC(O3)C2C(=O)O)CC1` (stereo not given), the survival is inactive: 98%.

For `N#C/C(=C\c1c[nH]c2ccccc12)C(N)=O`, the survival is inactive: 99%.

As to `CC(=O)c1ccc(Nc2cc(C)nc3nc(Cc4ccc(Cl)cc4)nn23)cc1`, the survival was inactive: 60%. As for `CCc1ccc2oc(C(=O)Nc3cc(C)ccc3C)cc(=O)c2c1`, the figure is inactive: 52%; as for `CC(C)c1nn2c(=O)cc(COC(=O)c3ccccc3NC(=O)C3CCCCC3)nc2s1`, inactive: 90%. As for `O=C(Nc1cc2c(cc1C(=O)c1ccccc1Cl)OCCO2)c1ccccc1`, the figure is inactive: 113%. With `OCCN1CCN(C(c2ccccc2Cl)c2sc3nc(-c4ccco4)nn3c2O)CC1` (stereo not given), the survival was inactive: 55%.

On to `COc1ccc(CCNC(=O)c2ccc3c(c2)OCO3)cc1`, for which the survival is inactive: 110%. Regarding `N#CC(C#N)=C(C(C#N)=C1Nc2ccccc2N1)c1ccccc1F`, the survival is inactive: 59%.

As for `Cc1cc(C)c(NC(=O)CCn2c(=O)c3cccn3c3cccnc32)c(C)c1`, the survival is inactive: 79%. The result for `Clc1cccc(CNc2cc(-c3ccccc3)nc3nncn23)c1` reads inactive: 67%. As for `Cc1cc(C)cc(Oc2coc3cc(OCC(=O)NC4CCCCC4)ccc3c2=O)c1`, the survival was inactive: 136%. As for `Cc1cc(N)c(-n2cc3c(c2-c2ccc(Br)cc2)c(=O)n(C)c(=O)n3C)cc1C`, the figure is inactive: 66%. For the compound `CCOc1ccc(OCC)c(NC(=O)CC(C)n2nc(C)cc2C)c1` (stereo not given), the survival was inactive: 84%. The result for `CCOc1ccc(-c2cc(C(=O)Nc3ccc(NC(C)=O)cc3)no2)cc1` reads inactive: 61%. For `O=C(O)CCCNc1cc(N2CCN(C3CCCCC3)CC2)c2noc3c2c1C(=O)c1ccccc1-3`, the survival is inactive: 74%. With `CCCS(=O)(=O)N1CC(=O)N(c2cc(C)ccc2C)C(C)(C(=O)NC2CCCCCC2)C1` (stereo not given), the survival is inactive: 117%. As for `COc1cccc(-c2cn3c(n2)sc2cc(C(=O)NCCc4ccc(OC)c(OC)c4)ccc23)c1`, the figure is inactive: 49%. As for `N#CC1=C(N)N(c2cccc(Cl)c2)C2=C(C(=O)CCC2)C1c1cc(CN2CCOCC2)cs1` (stereo not given), the survival was inactive: 70%. As for `Cc1cccc(N2CCn3c2nc2c3c(=O)n(CCc3ccccc3)c(=O)n2C)c1`, the figure is inactive: 92%; as for `CC1Oc2ccccc2N(CC(=O)NCc2ccccc2)C1=O` (stereo not given), inactive: 92%. As for `Cc1cccc(N2C(=O)CS(=O)(=O)C23C(=O)N(Cc2c(F)cccc2Cl)c2ccccc23)c1` (stereo not given), the survival was inactive: 95%. The result for `CSc1cccc(NC(=O)CN2CCN(Cc3ccccc3C)S2(=O)=O)c1` reads inactive: 124%.

For the compound `COc1ccc(Cl)cc1NC(=O)Cn1cc(C(=O)c2ccc(C)cc2)c(=O)c2ccc(C)nc21`, the survival was inactive: 73%. Take `O=C1CCC(=O)N1CNc1ccccc1`: the survival is inactive: 85%.
